Assay results taken from the supplement of paper PMC3334620.
Over roughly 33,000 sequences, “E-score (-0.5 to 0.5)” has its median near -0.032; the highest 2% begin near 0.36. Some of the results follow.

Each sequence was assayed against T1, Sko1 (UniProt Q02100) (assay: PBM E-score (8-mer binding enrichment) (E-score (-0.5 to 0.5)); higher = stronger / more preferred TF binding; most listed sequences are background and not binding sites). Conditions: protein concentration: 200 nM; construct: GST-full length.
T1 sequence: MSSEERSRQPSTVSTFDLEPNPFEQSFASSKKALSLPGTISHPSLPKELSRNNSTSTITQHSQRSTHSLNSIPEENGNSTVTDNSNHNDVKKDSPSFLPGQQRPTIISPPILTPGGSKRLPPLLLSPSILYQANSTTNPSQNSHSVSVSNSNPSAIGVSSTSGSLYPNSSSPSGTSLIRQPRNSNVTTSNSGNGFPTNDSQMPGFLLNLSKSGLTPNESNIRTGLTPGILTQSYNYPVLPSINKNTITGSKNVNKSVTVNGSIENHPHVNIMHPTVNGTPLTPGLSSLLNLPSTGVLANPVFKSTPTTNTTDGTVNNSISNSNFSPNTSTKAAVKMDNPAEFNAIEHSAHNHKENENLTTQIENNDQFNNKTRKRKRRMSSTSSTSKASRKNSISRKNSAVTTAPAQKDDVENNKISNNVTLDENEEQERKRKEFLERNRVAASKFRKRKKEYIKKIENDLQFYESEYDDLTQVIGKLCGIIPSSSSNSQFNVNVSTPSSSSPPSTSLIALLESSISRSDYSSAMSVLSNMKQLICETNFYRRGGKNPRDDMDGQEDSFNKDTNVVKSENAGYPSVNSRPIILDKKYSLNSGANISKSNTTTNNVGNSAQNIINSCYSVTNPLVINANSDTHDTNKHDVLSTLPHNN
Outline: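 Yeast transcription factors, full-length or as DNA-binding domains, were expressed with a GST tag using PURExpress in vitro transcription/translation. At about 100-200 nM they were applied to universal all-10-mer Agilent arrays, double-stranded by primer extension on fresh or once-stripped slides. Fluorescent anti-GST detected bound protein, and masliner normalised the scans. E-scores for ungapped eight-base words, pooled with reverse complements, came from the Universal PBM Analysis Suite.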

Sequence	PBM E-score
CTTTCGAA	-0.0514
AGACCATG	-0.277
ACCTAGGG	-0.0328
CTCTACTC	-0.109
AAACTAGA	0.00906
GTTAGAGA	-0.0441
AATTCCCA	0.116
AGAACTTA	0.167
CTGCTAAA	-0.0578
CGTGGCGC	0.0703
GCGGGACA	-0.185
AGTTACAT	0.0365
ATATCACA	-0.0494
AAACGTAA	0.462
AGATGGTA	-0.0645
CACGGGTA	0.0864
CAAGGGAC	-0.245
AGCGTCTG	-0.309
TATTCAGA	0.172
ATCGTTCC	-0.08
ACCCTTAG	-0.12
CAGTAAGG	-0.205
CTTAGCGC	0.1
AGAACGAC	0.0567
AAACGAAT	0.207

Sequence	PBM E-score
GGACCGCC	-0.415
ACCGTGCT	-0.127
CAGGTATG	-0.00478
AGTATTGG	-0.104
CGCTCGAC	-0.216
CTCCTGAC	-0.0161
TCGGATCA	0.0409
TACCAATA	-0.116
GAGTTCAC	0.0307
AAAAAGCA	0.0572
AAAGGATG	-0.0255
CCACATAG	-0.275
AAAGTCAC	-0.0178
CCCCCTAA	-0.19
TCACTACA	0.255
AATTATCC	0.278
ACATGGTA	0.00395
ATGAGACC	-0.131
ACGCCATC	0.376
CAAGGGCA	-0.326
ATCAAAGG	-0.115
ATTCATGA	0.229
CCACCGAA	-0.00284
GTGTAATA	0.221
ATGGCCAA	0.0668

Sequence	PBM E-score
GCGGGCCA	-0.0885
CTCTTGTC	-0.187
TACATTAA	0.212
AGATTTAG	0.0772
TACTGGGA	-0.0382
AGTGCGAC	-0.0962
CGAAAGAA	0.00601
AGCGAGGG	-0.229
ACCCGAGG	-0.22
TGTGTTAA	0.188
ATGGTTTA	0.0771
CCATTATA	-0.0102
CTCGTTGC	0.127
GTACACAA	0.124
GTACAACA	0.193
CGCGTTCA	0.146
ATACATGC	0.0846
CATGCCGG	-0.00789
CTATGACA	0.236
GCAGGAAC	-0.0882
CGTCTTGA	0.183
ACGATGGC	0.13
AACAGAAA	0.0791
AGCATTAG	-0.0242
ATCGTTGA	0.12

Sequence	PBM E-score
ATCGTCAA	0.287
CACCTTAG	0.00263
ACCCACGT	0.374
CTCTCTGC	-0.291
AAACGGTA	-0.0429
ACATTTAT	0.173
GCTCTTTA	-0.0898
GCAACCCC	-0.249
ACTGAGAA	-0.195
ACGGACTC	-0.236
ATAAATGG	0.00336
CGGGATTA	-0.00217
ATGACGAG	0.462
CGTATCCA	0.158
GAATAGTA	0.192
GGATAAGA	-0.102
AACACGCC	-0.0487
AGTAAATC	0.0872
GAAATGTC	-0.00114
AAGATTGA	0.0724
CGGACAAG	-0.189
CACTCCCG	-0.198
CTAAGAAG	0.12
GAGCGACC	-0.222
CAAACCCA	0.0369

Sequence	PBM E-score
CCTCTGCC	-0.346
ACCAATAG	-0.294
AAGCACCA	-0.155
AATGCCCG	-0.342
AGTGCTTG	-0.0619
CGAATGTC	0.0379
ATTTGCCG	-0.144
CTCTCCTA	0.0822
AACATACG	0.387
GAAGGACC	-0.245
GAATAGCC	-0.17
CGAGTTTC	-0.0568
ACGGCGTG	0.0446
AGTGGTTG	0.00724
AATAGGCA	0.0422
GAGGCTAC	-0.196
AACAGCGA	-0.126
ATGAACAA	0.187
AGCTGTAT	-0.184
GGACGCGA	-0.0252
TAGCAACA	0.141
CCGCTAGC	-0.241
ACCTTACC	-0.0227
ACGAAGGA	0.0704
ACTGTAGG	-0.0232

Sequence	PBM E-score
TCATTAAA	0.304
CTTACGTC	0.459
AAAGGTCG	-0.191
TCTTAAAA	0.108
CTTAGTAA	0.0423
GTTATGGA	0.198
TCCATGCA	-0.168
AGCACGCT	-0.101
ACTCTACA	-0.00963
CACTCCGA	-0.124
CGAGCCTC	-0.324
CCGCAGGA	-0.348
CGCCGATA	-0.12
ACGCCTCT	-0.0788
ACGAAGGC	-0.163
ACCGAAGC	-0.195
ATCGCGCG	0.266
AGGCGACC	-0.133
GATCATCA	0.00452
ATCGATCA	0.116
TCACCTGA	-0.125
ACAGAAGT	0.0286
GCCAGCCC	-0.3
CCATGGAC	-0.0576
CCGTAAAC	0.104

Sequence	PBM E-score
ATGTGGGA	0.00803
GAACATTC	0.0331
AATTTGCG	0.164
GCTGTACA	-0.149
CGAGGGTC	-0.277
CTTGACAA	0.145
GAGGCGAA	-0.0469
GGCCTGAC	-0.172
ACATTAGG	-0.00072
GACAAGCA	-0.178
GAGCGAGA	-0.0193
ATTCTTTC	0.0405
AAGCTCGT	0.136
CACTGGAA	-0.0512
ACTGGAAA	0.046
AGTCGGCG	-0.0458
GAAGTTTA	0.133
ACTCGTGC	-0.0767
GAGGGATC	-0.259
GACGACTC	-0.0544
ACCTTAGT	-0.00136
CCCAACGA	0.0655
CCAACGCA	0.117
TAAGCAGA	-0.00339
AGACCTCA	-0.097

Sequence	PBM E-score
AGGACTCA	0.0831
AACCTGAC	0.0465
AGGTACTC	-0.109
ACCTGCGG	-0.343
CGCATGCC	0.108
CACGATCA	0.185
AATGTCCT	-0.0112
ATGGCTCA	-0.0823
AGCTGAAA	0.0355
GTAGGCCA	-0.0444
CAGTGGCG	-0.0659
AGATGCTC	-0.106
ACGTGTTG	0.426
CGTCCCAG	-0.111
CGACATAA	0.226
GAAGTTGC	-0.0684
ACCGATGG	-0.0547
AGCTATAC	0.0268
CTCGCAGC	-0.155
GATAACAA	-0.00192
GATGGCCC	-0.0912
GAAGACTA	-0.0637
GCTACTTA	0.0424
ATGGCGTA	0.449
ACTAACGG	-0.113

Sequence	PBM E-score
AGGGTGGC	-0.298
CGCTCGAG	0.021
CATGGTGA	0.135
GCGTCCCC	-0.303
GACTGAGA	0.019
CTACTCCA	-0.163
ACTCGCCT	-0.196
ACCGACCT	-0.192
CTCCACGC	-0.122
CCCTAGTA	-0.103
CTACCTAA	0.155
GACTCTGC	-0.212
GGAATGTA	-0.152
AAAACTAC	0.193
AGCTGGAC	-0.118
CTTTGGCA	-0.314
GGGCCAAC	-0.233
AAAAGGAA	0.012
AACAGGAT	-0.0732
